# Laboratory results: paper PMC4336329 (PLoS ONE, 2015)
# The campaign covered roughly 310,000 compounds. About 2,200 (0.71%) showed an effect of 50% or more. The effect is printed as a negative number. This is one part of the list.
# Target: human ether-à-go-go-related gene (hERG) potassium channel (human, UniProt Q12809)
# Assay: primary screen, population patch clamp on CHO cells stably expressing hERG
# Chain of human ether-à-go-go-related gene (hERG) potassium channel (Q12809 whole entry, looked up): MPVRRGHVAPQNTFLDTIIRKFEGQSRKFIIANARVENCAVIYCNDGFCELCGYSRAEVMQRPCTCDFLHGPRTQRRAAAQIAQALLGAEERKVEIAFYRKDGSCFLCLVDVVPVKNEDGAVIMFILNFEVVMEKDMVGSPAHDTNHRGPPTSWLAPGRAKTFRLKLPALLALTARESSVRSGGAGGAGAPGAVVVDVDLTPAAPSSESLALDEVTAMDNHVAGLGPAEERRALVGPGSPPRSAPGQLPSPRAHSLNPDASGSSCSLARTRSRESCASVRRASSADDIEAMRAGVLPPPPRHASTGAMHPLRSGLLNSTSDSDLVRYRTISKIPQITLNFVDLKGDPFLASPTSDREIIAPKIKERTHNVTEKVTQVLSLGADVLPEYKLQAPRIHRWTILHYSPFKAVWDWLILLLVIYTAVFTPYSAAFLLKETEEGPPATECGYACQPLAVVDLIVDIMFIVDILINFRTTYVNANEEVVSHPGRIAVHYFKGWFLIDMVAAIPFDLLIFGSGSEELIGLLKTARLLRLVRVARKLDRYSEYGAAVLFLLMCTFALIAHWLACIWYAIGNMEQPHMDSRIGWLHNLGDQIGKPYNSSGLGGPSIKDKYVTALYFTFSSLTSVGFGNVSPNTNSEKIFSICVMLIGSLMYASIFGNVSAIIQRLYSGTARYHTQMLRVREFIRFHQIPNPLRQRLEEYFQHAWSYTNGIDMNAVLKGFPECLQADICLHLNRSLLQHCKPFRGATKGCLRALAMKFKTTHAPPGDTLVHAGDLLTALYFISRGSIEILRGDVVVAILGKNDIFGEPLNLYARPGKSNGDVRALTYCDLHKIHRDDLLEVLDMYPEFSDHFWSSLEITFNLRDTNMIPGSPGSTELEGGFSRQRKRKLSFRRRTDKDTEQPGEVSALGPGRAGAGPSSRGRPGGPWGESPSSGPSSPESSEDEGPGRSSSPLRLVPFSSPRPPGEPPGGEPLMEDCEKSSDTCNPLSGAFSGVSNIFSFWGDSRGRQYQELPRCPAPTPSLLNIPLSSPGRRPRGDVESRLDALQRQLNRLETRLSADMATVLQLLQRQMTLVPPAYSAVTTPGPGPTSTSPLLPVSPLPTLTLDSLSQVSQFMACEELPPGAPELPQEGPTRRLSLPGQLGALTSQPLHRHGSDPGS
row,SMILES,"hERG current change (%, negative = inhibition) at 1uM"
1,ClC(Cl)(Cl)c1nc2ccccc2n2nncc12,16%
2,COc1ccc(S(=O)(=O)N2CCOCC2)cc1NC(=O)CSc1cccc[n+]1[O-],0.662%
3,Cc1cc(C)cc(C(=O)NCC(=O)OCC(=O)N2CCN(S(=O)(=O)c3ccc4ccccc4c3)CC2)c1,3.54%
4,COc1ccc(C(=O)Oc2ccc[nH]c2=O)cc1,8.98%
5,CNC(=O)COC(=O)/C=C/c1c(C)nn(-c2ccccc2)c1C,6.15%
6,O=C(Nc1ccc2sc3ccccc3c(=O)c2c1)c1ccccc1Cl,6.45%
7,Cc1cc(C)nc(SC(C)C(=O)Nc2ccc(S(N)(=O)=O)cc2)n1 (stereo not drawn),2.97%
8,Cc1c(NC(=O)c2cc(-c3ccc(F)cc3)on2)c(=O)n(-c2ccccc2)n1C,6.4%
9,O=C(CCN1C(=O)/C(=C/C=C/c2ccccc2)SC1=S)Nc1nccs1,-3%
10,O=C(N/N=C/c1ccc([N+](=O)[O-])cc1)c1cccnc1,13.9%
11,CCOC(=O)c1[nH]c2ccc(Br)cc2c1NC(=O)CCN1CCN(C(=O)OCC)CC1,-0.782%
12,NC1=NC[C@H](Cc2ccccc2)N1CCc1cc(C(F)(F)F)cc(C(F)(F)F)c1,12.8%
13,O=C(c1csc(Nc2ccccc2Cl)n1)N1CCCC1,4.89%
14,O=S(=O)(c1ccc(Cl)cc1)N1CCCC1c1nc(-c2ccc(Cl)cc2)no1 (stereo not drawn),17.6%
15,COCCCNC(=S)N/N=C/c1cccc(OC)c1O,12.7%
16,CCc1cccc2[nH]c3cc([N+](=O)[O-])ccc3c12,8.01%
17,CC(C)OP(=O)(OC(C)C)C(NC(=O)c1cccc([N+](=O)[O-])c1)C(N)=O (stereo not drawn),6.46%
18,CCC1SC2=NC(C)=C(C(=O)OCC(C)C)C(/C=C/c3ccccc3OC)N2C1=O (stereo not drawn),-14.9%
19,C=CCNc1nc(Cl)nc(Nc2cc(Cl)ccc2OC)n1,16.3%
20,CC(C)n1cc(-c2nc(C(=O)NN)cs2)c(=O)n(Cc2ccccc2)c1=O,5.65%
21,CCN1CCCC1CNC(=O)c1csc2c1CCCC2 (stereo not drawn),1.22%
22,Cc1ccc2[nH]c3nc(N/N=C/c4cccc(O)c4)nnc3c2c1,19.5%
23,Cc1cccc(-n2c(O)c(/C=N/NC(=O)c3ccncc3)c(=O)[nH]c2=O)c1,14.2%
24,Cc1ccc(CS(=O)(=O)CCC(=O)NC2CC2)cc1,1.21%
25,COc1cc(-c2nnn(CC(=O)NCc3ccccc3)n2)cc(OC)c1OC,-3.31%
26,CCc1nnc(NC(=O)c2ccc3c(c2)C(=O)N(C(C)(C)C)C3=O)s1,8.45%
27,O=C(/C=C/c1ccccc1)Nc1cccnc1Cl,17.2%

row,SMILES,"hERG current change (%, negative = inhibition) at 1uM"
1,O=[N+]([O-])c1cc(-c2nnc(Nc3ccc(O)cc3)c3ccccc23)ccc1N1CCOCC1,15.9%
2,COc1ccc(C2C(C(=O)Nc3ccc4c(c3)OCCO4)c3ccccc3C(=O)N2C)cc1 (stereo not drawn),13.4%
3,CC(C(=O)N1CCOCCOCCOCCOCCOCC1)N1C(=O)c2ccccc2C1=O (stereo not drawn),4.46%
4,Cc1ccc(N2C(=O)N(CC(=O)Nc3cccc(C)c3C)C(=O)C2C)cc1 (stereo not drawn),11.4%
5,Nc1ccc(C2(c3ccc(N)cc3)c3ccccc3C(=O)c3ccccc32)cc1,12.1%
6,CC(C)CNC(=O)Nc1ccc(F)c(Cl)c1,-1.79%
7,COc1ccc(-c2nn(-c3ccccc3)cc2C(=O)N2c3ccc(C)cc3C3CN(C)CCC32)cc1 (stereo not drawn),15.4%
8,Nc1nc(SCc2ccc(Cl)cc2Cl)ns1,10.3%
9,CN(Cc1ccccc1)S(=O)(=O)c1cccc2cccnc12,0.857%
10,O=C(Nc1cccc(S(=O)(=O)NC2=NCCC2)c1)c1cc(Cl)ccc1[N+](=O)[O-],12.7%
11,O=C(Nc1ccccc1Cl)c1ccccc1,9.54%
12,O=C(N/N=C/c1ccncc1)c1cccc([N+](=O)[O-])c1,3.59%
13,COC(=O)c1sc(N)c(C(=O)OC)c1COC(=O)CNS(=O)(=O)c1ccc(C)cc1,5.45%
14,Cc1ccc(NCC(=O)N/N=C\c2cccc(O)c2)cc1,15.1%
15,CCOC(=O)C1CC=C(Cl)CC1C(=O)Nc1nccs1 (stereo not drawn),13.3%
16,COc1cc(OCc2ccccc2)c(C(=O)/C=C/c2ccc3c(c2)OCO3)c(OC)c1OC,8.05%
17,Cc1ccc(N=C2NC(=O)/C(=C/c3cccs3)S2)cc1C,9.94%
18,CCCCn1c(N)c(N(CCOC)C(=O)C2CCN(S(=O)(=O)c3ccc(Cl)cc3)CC2)c(=O)[nH]c1=O,17.3%
19,COc1ccc(C2CC(=O)Oc3c(C(CCN4CCN(c5ccccc5)CC4)c4ccc(N(C)C)cc4)c(OC)cc(OC)c32)cc1 (stereo not drawn),16.6%
20,O=S(=O)(Nc1cccc(-c2ccc(N3CCCCCC3)nn2)c1)c1ccccc1F,7.16%
21,CCCOC(=O)C1C2C=CC(C2)C1C(=O)OCC(=O)c1ccccc1 (stereo not drawn),-3.56%
22,O=C(C/C=N/OCc1ccc(Cl)cc1Cl)c1ccccc1,-3.92%
23,O=c1nc2ccccc2c2n1CC(CN1CCN(Cc3ccccc3)CC1)N2 (stereo not drawn),-34.9%
24,CC(C)(C)C(=O)C[n+]1ccc(C(N)=O)cc1.[Br-],8.03%
25,CCCCn1c(N)c(N(CCOC)C(=O)c2ccc(-n3c(C)ccc3C)cc2)c(=O)[nH]c1=O,11.1%
26,C=CCn1c(SCC(=O)N2CCN(c3ccccc3)CC2)nnc1-c1ccco1,4.57%
27,Cc1ccc(S(=O)(=O)c2nc(S(C)(=O)=O)sc2N2CCC(O)CC2)cc1,12.9%
